Here are results for 39 molecules from the antibiotic and cytotoxicity screens of Wong et al. (2023).

SMILES strings stand for the structures. This is one part of the list.

The first assay concerns HSkMC (human skeletal muscle cells). As to the kind of experiment: cytotoxicity call (relative viability < 0.9). The following applies: 10 µM.
Consider `NCCNC[C@@H](N)CCCNC(N)=N[N+](=O)[O-].O=CC(F)(F)F`, for which the cytotoxicity call was “inactive”.

With `CC(=O)NN1Cc2ccccc2C1=N`, the cytotoxicity call was “inactive”.

Regarding `CN1CCOC[C@]2(CCCNC2)C1`, the cytotoxicity call was “inactive”.

Consider `O=C1CO[C@]2(CNCCOC2)CN1CC1CC1`, for which the cytotoxicity call was “inactive”.

As to `COC1=CC(=O)OC(C=Cc2ccccc2)C1` (centres undefined), the cytotoxicity call is “inactive”.

Consider `Oc1cc(Cl)ccc1Oc1ccc(Cl)cc1Cl`, for which the cytotoxicity call was “inactive”.

For `COc1cc2c(cc1-c1cc3cc4ccoc4cc3oc1=O)OCO2`, the cytotoxicity call was “inactive”.

As to `CC(=O)N1CC[N+](C)(C)CC1`, the cytotoxicity call was “inactive”.

With `CC(=O)O[C@@]12CO[C@@H]1C[C@H](O)[C@@]1(C)C(=O)[C@H](O)C3=C(C)[C@@H](OC(=O)[C@H](O)[C@@H](NC(=O)c4ccccc4)c4ccccc4)C[C@](O)([C@@H](OC(=O)c4ccccc4)[C@H]21)C3(C)C`, the cytotoxicity call was “inactive”.

Take `COCC(=O)N1C[C@@H]2c3ccccc3CN[C@@H]2C1`: the cytotoxicity call was “inactive”.

On to `CCCN1CC(CSC)CC2c3cccc4[nH]cc(c34)CC21.CS(=O)(=O)O` (centres undefined), for which the cytotoxicity call is “inactive”.

Regarding `CN(C)[C@@H]1C(=O)[C@@H](C(N)=O)C(=O)[C@@]2(O)C(=O)[C@H]3C(=O)c4c(O)ccc(Cl)c4[C@@](C)(O)[C@H]3C[C@@H]12`, the cytotoxicity call is “inactive”.

Take `Cn1ccnc1CN1CCC[C@]2(CCNC2=O)C1`: the cytotoxicity call was “inactive”.

In the case of `C=C(C)C1Cc2c(ccc3c2OC2COc4cc(OC)c(OC)cc4C2C3=O)O1` (centres undefined), the cytotoxicity call was “inactive”.

Regarding `O=C1O[C@H]2CN[C@@H]1C2`, the cytotoxicity call is “inactive”.

For `[N-]=[N+]=NCc1ccccc1C[C@@]1(C(=O)NCCN2CCOCC2)N=C(c2ccc(OCCCO)cc2)O[C@@H]1c1ccccc1N=[N+]=[N-]`, the cytotoxicity call is “inactive”.

Consider `CN1C2CCC1CC(OC(=O)C(CO)c1ccccc1)C2` (centres undefined), for which the cytotoxicity call was “inactive”.

In the case of `Br.COc1ccc2c(c1)C13CCCCC1C(C2)N(C)CC3` (centres undefined), the cytotoxicity call is “inactive”.

On to `C[C@@H]1CN([C@H](C)CO)C(=O)CCCn2nncc2CO[C@H]1CN(C)C(=O)Oc1cccc2ccccc12`, for which the cytotoxicity call was “inactive”.

For `Nc1ccc(-c2ccc(N)cc2)cc1`, the cytotoxicity call is “inactive”.

As for `CN(C)C(=O)C(CCN1CCC(O)(c2ccc(Cl)cc2)CC1)(c1ccccc1)c1ccccc1.Cl`, the cytotoxicity call is “inactive”.

As to `Cc1ccc(OC(=O)N(C)C[C@H]2OCc3ccccc3-c3c(n(C)c4ccccc34)C(=O)N([C@@H](C)CO)C[C@@H]2C)cc1`, the cytotoxicity call is “inactive”.

With `COC(=O)C[C@@H]1CC[C@@H]2NC[C@@H](O)COC[C@H]2O1`, the cytotoxicity call is “inactive”.

Regarding `O=C(c1ccco1)N1C[C@H]2CN[C@@H](C2)C1`, the cytotoxicity call is “inactive”.

Regarding `CC(C)CC(CN)CC(=O)O` (centres undefined), the cytotoxicity call is “inactive”.

In a further assay the test system is HepG2. Briefly: cytotoxicity call (relative viability < 0.9). The following applies: 10 µM.
On to `O=C1CO[C@H]2CNC[C@@H]2N1CC1CCCC1`, for which the cytotoxicity call was “inactive”.

Take `CC1=C[C@H]2[C@]3(O)[C@H](C=C(CO)C[C@]2(O)C1=O)[C@H]1C(C)(C)[C@@]1(O)[C@H](O)[C@@H]3C`: the cytotoxicity call is “inactive”.

As to `CN(C)C(=O)[C@]1(Cc2ccccc2CN=[N+]=[N-])N=C(c2ccc(OCCCO)cc2)O[C@@H]1c1ccccc1N=[N+]=[N-]`, the cytotoxicity call was “inactive”.

On to `O=C(NC(=O)c1ccccc1Cl)Nc1ccc(OC(F)(F)F)cc1`, for which the cytotoxicity call is “inactive”.

In the case of `O=C(c1ccno1)N1C[C@@H]2CCN[C@@H]2C1`, the cytotoxicity call is “inactive”.

Take `CC(=O)O.Cc1cc2c(C(C)C)c(O)c(O)c(C=O)c2c(O)c1-c1c(C)cc2c(C(C)C)c(O)c(O)c(C=O)c2c1O`: the cytotoxicity call was “inactive”.

Take `COCCCNC(=O)C1[C@@H]2CC[C@H]1CNC2` (some centres undefined): the cytotoxicity call is “inactive”.

As for `Cc1ccc(-n2nccn2)c(C(=O)N2CCN(c3nc4cc(Cl)ccc4o3)CCC2C)c1` (centres undefined), the cytotoxicity call was “inactive”.

Consider `NCCc1ccc(S(=O)(=O)F)cc1`, for which the cytotoxicity call was “inactive”.

`CC(N)(Cc1ccccc1)c1ccccc1` (centres undefined): the cytotoxicity call is “inactive”.

Take `CN1CCN(C(=O)[C@H]2C[C@H]3CN(c4ncccn4)C[C@@H]3N2C)CC1`: the cytotoxicity call was “inactive”.

In the case of `CCCC(C)(COC(N)=O)COC(=O)NC(C)C` (centres undefined), the cytotoxicity call is “inactive”.

For the molecule `CO[C@H]1[C@@H](O)C[C@@H](O[C@H]2[C@@H](O)C[C@@H](O[C@H]3[C@@H](O)C[C@@H](O[C@H]4CC[C@@]5(C)[C@@H](CC[C@H]6[C@@H]5C[C@@H](O)[C@@]5(C)[C@H](C7=CC(=O)OC7)CC[C@@]65O)C4)O[C@@H]3C)O[C@@H]2C)O[C@@H]1C`, the cytotoxicity call was “active”.

With `CC(C)Oc1ccc(CCN)cc1`, the cytotoxicity call was “inactive”.

Take `NCCNC[C@@H](N)CCCNC(N)=N[N+](=O)[O-].O=CC(F)(F)F`: the cytotoxicity call is “inactive”.

Regarding `CC(=O)NN1Cc2ccccc2C1=N`, the cytotoxicity call is “inactive”.

In the case of `CN1CCOC[C@]2(CCCNC2)C1`, the cytotoxicity call was “inactive”.

As for `O=C1CO[C@]2(CNCCOC2)CN1CC1CC1`, the cytotoxicity call is “inactive”.

On to `COC1=CC(=O)OC(C=Cc2ccccc2)C1` (centres undefined), for which the cytotoxicity call is “inactive”.

As for `Oc1cc(Cl)ccc1Oc1ccc(Cl)cc1Cl`, the cytotoxicity call is “inactive”.

Turning to `COc1cc2c(cc1-c1cc3cc4ccoc4cc3oc1=O)OCO2`, the cytotoxicity call is “inactive”.

With `CC(=O)N1CC[N+](C)(C)CC1`, the cytotoxicity call was “inactive”.

Take `CC(=O)O[C@@]12CO[C@@H]1C[C@H](O)[C@@]1(C)C(=O)[C@H](O)C3=C(C)[C@@H](OC(=O)[C@H](O)[C@@H](NC(=O)c4ccccc4)c4ccccc4)C[C@](O)([C@@H](OC(=O)c4ccccc4)[C@H]21)C3(C)C`: the cytotoxicity call was “active”.

With `COCC(=O)N1C[C@@H]2c3ccccc3CN[C@@H]2C1`, the cytotoxicity call was “inactive”.

On to `CCCN1CC(CSC)CC2c3cccc4[nH]cc(c34)CC21.CS(=O)(=O)O` (centres undefined), for which the cytotoxicity call was “inactive”.

`CN(C)[C@@H]1C(=O)[C@@H](C(N)=O)C(=O)[C@@]2(O)C(=O)[C@H]3C(=O)c4c(O)ccc(Cl)c4[C@@](C)(O)[C@H]3C[C@@H]12`: the cytotoxicity call is “inactive”.

As for `Cn1ccnc1CN1CCC[C@]2(CCNC2=O)C1`, the cytotoxicity call is “inactive”.

In the case of `C=C(C)C1Cc2c(ccc3c2OC2COc4cc(OC)c(OC)cc4C2C3=O)O1` (centres undefined), the cytotoxicity call is “active”.

Consider `O=C1O[C@H]2CN[C@@H]1C2`, for which the cytotoxicity call was “inactive”.

For the molecule `[N-]=[N+]=NCc1ccccc1C[C@@]1(C(=O)NCCN2CCOCC2)N=C(c2ccc(OCCCO)cc2)O[C@@H]1c1ccccc1N=[N+]=[N-]`, the cytotoxicity call is “active”.

On to `CN1C2CCC1CC(OC(=O)C(CO)c1ccccc1)C2` (centres undefined), for which the cytotoxicity call was “inactive”.

With `Br.COc1ccc2c(c1)C13CCCCC1C(C2)N(C)CC3` (centres undefined), the cytotoxicity call is “inactive”.

In the case of `C[C@@H]1CN([C@H](C)CO)C(=O)CCCn2nncc2CO[C@H]1CN(C)C(=O)Oc1cccc2ccccc12`, the cytotoxicity call is “inactive”.

Turning to `Nc1ccc(-c2ccc(N)cc2)cc1`, the cytotoxicity call was “inactive”.

Take `CN(C)C(=O)C(CCN1CCC(O)(c2ccc(Cl)cc2)CC1)(c1ccccc1)c1ccccc1.Cl`: the cytotoxicity call is “active”.

Consider `Cc1ccc(OC(=O)N(C)C[C@H]2OCc3ccccc3-c3c(n(C)c4ccccc34)C(=O)N([C@@H](C)CO)C[C@@H]2C)cc1`, for which the cytotoxicity call is “active”.

`COC(=O)C[C@@H]1CC[C@@H]2NC[C@@H](O)COC[C@H]2O1`: the cytotoxicity call was “inactive”.

As to `O=C(c1ccco1)N1C[C@H]2CN[C@@H](C2)C1`, the cytotoxicity call was “inactive”.

`CC(C)CC(CN)CC(=O)O` (centres undefined): the cytotoxicity call was “inactive”.
